Assay results from PubChem BioAssay AID1745853 (National Center for Advancing Translational Sciences (NCATS), 2022).
Values joined by “and” are separate entries in the source; they are usually repeats but may differ in a detail not shown here. Equal values may be shown once. The list shows a part of the results. Further columns of the screen follow, without active or inactive calls. Peptide text beside a SMILES is read from it.

Columns and labels:
Experiment in all cases: Primary Screen for Target Class Profiling of Small Molecule Inhibitors of Methyltransferases
[1] = target: Glycine N-methyltransferase (Homo sapiens) (UniProt Q14749); details: purified enzyme, MTase-Glo SAH luminescence; measured here: GNMT inhibition; at 40 µM; stronger effect = lower value
How it was run: (§1)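 Each enzyme was reacted with SAM and its substrate, with compounds tested once at 40 uM; SAH formed was read by MTase-Glo luminescence.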

[2] = target: Guanidinoacetate N-methyltransferase (Homo sapiens) (UniProt Q14353); details: purified enzyme, MTase-Glo SAH luminescence; measured here: GAMT inhibition; at 40 µM; stronger effect = lower value
How it was run: as §1

[3] = target: Histamine N-methyltransferase (Homo sapiens) (UniProt P50135); details: purified enzyme, MTase-Glo SAH luminescence; measured here: HNMT inhibition; at 40 µM; stronger effect = lower value
How it was run: as §1

[4] = target: Nicotinamide N-methyltransferase (Homo sapiens) (UniProt P40261); details: purified enzyme, MTase-Glo SAH luminescence; measured here: NNMT inhibition; at 40 µM; stronger effect = lower value
How it was run: as §1

[5] = target: Phenylethanolamine N-methyltransferase (Homo sapiens) (UniProt P11086); details: purified enzyme, MTase-Glo SAH luminescence; measured here: PNMT inhibition; at 40 µM; stronger effect = lower value
How it was run: as §1
On the % scale 0 is the no-effect control and ±100 the full control effect.

Row | Compound | activity change, negative = inhibition [1] | activity change, negative = inhibition [2] [%] | activity change, negative = inhibition [3] | activity change, negative = inhibition [4] | activity change, negative = inhibition [5]
1 | CC1(C(=O)NC2CCCCCCC2)Cn2c(cc3occc32)C(=O)N1CCCN1CCCCC1 (stereo not given) | 1.38% | 6.05 | -4.47% | 4.89% | -1.05%
2 | COc1ccc(S(=O)(=O)N2C[C@@H]3C[C@H](C2)c2c(NC(=O)c4ccccc4)ccc(=O)n2C3)cc1 | -6.09% | -4.65 | -10.1% | -13.3% | -1.8%
3 | C=CC[C@@H]1CC=C[C@@H](C)N1C(=O)c1cc(OC)ccc1OC1CCN(C(=O)C2CC2)CC1 | -2.65% | -0.765 | -1.86% | -7.18% | 0.672%
4 | CC1CC(C)CN(S(=O)(=O)c2ccc3c(c2)oc(=O)n3CC(=O)N(C)Cc2ccco2)C1 (stereo not given) | -5.26% | 0 | 6.92% | 5.94% | 0.834%
5 | COc1ccc(Cn2c(=O)c3ccccc3n3c(-c4cccc(OC)c4)nnc23)cc1 | -12% | 2.81 | -4.7% | -7.02% | -4.98%
6 | CC1(C(=O)Nc2ccccc2)CN(Cc2ccccc2)Cc2ccc(N3CCOCC3)nc21 (stereo not given) | -9.07% | -0.328 | -6.45% | -5.72% | -14.7%
7 | CCOc1ccccc1CN1C(=O)c2cc3ccccc3n2CC1(C)C(=O)NCc1ccccc1OC (stereo not given) | -0.285% | 4.53 | 0.394% | 6.41% | -5.86%
8 | Cc1nc2ccc(-n3ncc(C(=O)c4cc5ccccc5[nH]4)c3N)cc2[nH]1 | -19.4% | 1.91 | -4.35% | -15.8% | -12.4%
9 | CCOC(=O)c1cnc(N2CC3CCC(C2)N3CC(F)(F)F)s1 | -2.54% | -1.63 | -15.9% | -8.9% | -2.57%
10 | COCCn1nc2n(c1=O)CCN(Cc1cccc(OC)n1)CC2 | -0.066% | 0.83 | 0.065% | 0.891% | 2.18%
11 | CC(C)n1cnc2c(NCc3ccccc3)nc(NCCCO)nc21 | – | 1.43 | – | -6.62% | 6.61%
12 | N#Cc1c(O)c2c(-c3ccc(-c4ccccc4O)cc3)csc2[nH]c1=O | -56.7% and 14.6% | -21.2 | -2.43% and 11.2% | -53.9% and -14% | -23.8% and -20.7%
13 | COc1ccc(CN2C(=O)c3c(NC(C)=O)c4cc(C)ccc4n3CC2(C)C(=O)NC2CCCCCC2)cc1 (stereo not given) | -8.73% | -0.795 | -6% | -8.8% | -3.67%
14 | CC1NC(=O)CNC(=O)C(C(C)C)NC(=O)C2CCCN2C(=O)C(C(C)C)NC(=O)C(Cc2c[nH]c3ccccc23)NC1=O (stereo not given) (cyclo(GAWVPV); configuration not given here) | 3.1% | 3.55 | 11.9% | -9.61% | 3.16%
15 | COC(=O)c1ncn2c1C(=O)N(c1cc(C)ccc1C)C(C)(C(=O)NCc1ccccc1)C2 (stereo not given) | 5.45% | 0 | 10.8% | 7.5% | 6.74%
16 | CCn1cc(-c2ccncc2)cc1C(=O)NCc1ccc(OC(C)C)cc1 | -7.08% | -3.83 | -19% | -10.6% | -6.33%
17 | CCOCCCN1C(=O)c2cc3sc(CC)cc3n2CC1(C)C(=O)NC1CCCCCC1 (stereo not given) | 4.01% | 0 | 7.8% | 0.959% | -1.3%
18 | Cc1ccsc1C(=O)NC1CCN(c2cc(-c3ccc(F)cc3)[nH]n2)C1 (stereo not given) | -7.71% | -2.58 | -0.606% | -17.9% | 7.71%
19 | COc1ccccc1N1CCN(C(=O)Cn2c(=O)n3nc(-c4ccccc4)nc3c3ccccc32)CC1 | 16.5% | 0 | 11.4% | 4.27% | 5.99%
20 | CC1CCCC(NC(=O)C2(C)Cn3c(cc4sccc43)C(=O)N2Cc2ccccc2F)C1C (stereo not given) | -0.251% | 0.714 | 0.091% | 1.26% | -1.79%

Row | Compound | activity change, negative = inhibition [1] | activity change, negative = inhibition [2] [%] | activity change, negative = inhibition [3] | activity change, negative = inhibition [4] | activity change, negative = inhibition [5]
21 | COc1ccc(C(=O)O[C@H]2CC(C)=CC[C@@]3(C)[C@@H](OC(C)=O)C[C@@](O)(C(C)C)[C@H]23)cc1 | 6.62% | 7.84 | 12.2% | -6.51% | 1.46%
22 | COC(=O)c1cc2n(n1)CC(C)(C(=O)NC1CCCCCC1)N(Cc1ccc(OC(C)C)cc1)C2=O (stereo not given) | 5.79% | 1.69 | -0.288% | 5.5% | 6.69%
23 | CCOC(=O)c1cc2n(n1)CC(C)(C(=O)NC1CCCC1)N(c1cccc(C)c1C)C2=O (stereo not given) | 3.25% | 0 | 2.86% | 5.31% | 1.6%
24 | CCC(C)NC(=O)c1ccc2c(=O)n(CC(C)C)c3nn(CC(=O)NC4CCCC4)c(=O)n3c2c1 (stereo not given) | -1.56% | 4.95 | 4.32% | -7.77% | -2.57%
25 | OCC1(CN2CCCC2)CCN(Cc2cnn(-c3ccccc3)c2)CC1 | -3.21% | -4.87 | -29.7% | -4.89% | -3.34%
26 | COc1cccc(C)c1C(=O)O[C@@H]1C[C@H](O[C@H]2[C@H](O)C[C@H](O[C@@H]3CCC[C@H]4[C@H]3C=C[C@@H]3CCCC/C=C/[C@H]5C=C(C(=O)O)[C@@H](C)C[C@@]56OC(=O)C(=C6O)OC(=O)[C@@]34C)O[C@@H]2C)O[C@H](C)[C@H]1O | 0.415% | 6.33 | 10% | -7.5% | 4.09%
27 | Cc1cccc(CNC(=O)c2cc3n(n2)CC(C)(C(=O)NC2CCCCCC2)N(C)C3=O)c1 (stereo not given) | -5.31% | 5.77 | -2.02% | 5.56% | -1.32%
28 | CN(C)CCN1C(=O)c2ccc(-c3ccco3)n2CC1(C)C(=O)NC1CCCCCC1 (stereo not given) | 5.84% | 3.79 | 7.74% | 4.14% | 0.171%
29 | Cn1cnc(-c2cc3nccc(Oc4ccc(NC(=S)NC(=O)Cc5ccccc5)cc4F)c3s2)c1 | 4.97% | 4.52 | 12.4% | -23.3% | 3.33%
30 | CCCn1c(=O)c2ccc(C(=O)NC(C)CC)cc2n2c(=O)n(Cc3ccccc3F)nc12 (stereo not given) | 2.74% | 0 | 6.65% | -3.59% | 0.532%
31 | O=C(CCc1nnc2n(Cc3ccc(Cl)cc3)c(=O)c3ccccc3n12)N1CCc2ccccc2C1 | -0.808% | 0.468 | 5.9% | 4.98% | 3.29%
32 | COc1cccc(CNC(=O)C2CCCCc3nnc(-c4ccccc4)n32)c1 (stereo not given) | -4.46% | -8.39 | -1.54% | -12.3% | -8.32%
33 | CCCn1c(=O)c2ccc(C(=O)NC3CCCCC3)cc2n2c(=O)n(Cc3c(F)cccc3Cl)nc12 | 2.06% | 4.72 | 2.92% | 4.54% | 4%
34 | Cc1n[nH]c(C)c1CNC(=O)C1CCCCC(=O)N1 (stereo not given) | 0.748% | -0.317 | 0.198% | -0.175% | 0.539%
35 | COc1cccc(N2C(=O)c3cc4sccc4n3CC2(C)C(=O)NC2CCC(C)CC2)c1 (stereo not given) | -2.06% | 4.36 | -0.854% | 0.013% | -2.98%
36 | Cc1ccc(-c2ccc3c(ccc4sc5c(c43)NC[C@@H](C)NC5=O)n2)cn1 | 5.78% | 4.7 | 10.7% | -9.84% | -3.6%
37 | Cc1cccc(CSc2nnc3n(Cc4ccccc4)c(=O)c4ccccc4n23)c1 | 4.92% | 0.407 | 3.77% | -0.349% | 3.96%
38 | CC(C)OCCCn1c(=O)c2ccccc2n2c(CCC(=O)Nc3ccc(F)c(F)c3)nnc12 | -3.65% | 15.1 | 6.94% | -12.8% | -2.77%
39 | Nc1nc(OCc2ccccc2)c2[nH]cnc2n1 | -12.3% | -4.45 | -4.27% | -21.8% | -12.2%
40 | CC1C(O)C(O)C2C(C(=O)OCCc3ccc(O)cc3)=COC(O[C@@H]3O[C@H](CO)[C@@H](O)[C@H](O)[C@H]3O)C12 (stereo not given in full) | 3.37% | 5.48 | 11.2% | -3.65% | 3.44%

Row | Compound | activity change, negative = inhibition [1] | activity change, negative = inhibition [2] [%] | activity change, negative = inhibition [3] | activity change, negative = inhibition [4] | activity change, negative = inhibition [5]
41 | Cc1ccc(CNC(=O)c2ccc3c(=O)[nH]c4c(C(=O)NCC5CCCO5)sc(=S)n4c3c2)cc1 (stereo not given) | -9.06% | 1.93 | 9.83% | -11.5% | 0.797%
42 | O=S(=O)(c1ccc(Cl)cc1)c1nnn2c1nc(NCCc1ccccc1)c1ccccc12 | -0.293% | 1.95 | 5.41% | 3.3% | -0.032%
43 | CN(Cc1ccccc1)C1(C(=O)NC2CCC(O)CC2)Cc2ccccc2C1 (stereo not given) | -0.552% | -1.52 | -0.33% | 0.079% | 0.522%
44 | CCCOc1ccc(CN2C(=O)c3cc(C(C)(C)C)nn3CC2(C)C(=O)NC2CCCCC2)cc1 (stereo not given) | -2.96% | 3.25 | 5.75% | -2.27% | -1.35%
45 | CSCCC(=O)N[C@H]1CN(c2cc(C3CC3)ncn2)C[C@@H]1C1CC1 | -6.5% | -6.76 | -4.96% | -7.25% | -0.917%
46 | Cn1cc(C(=O)NCCc2cccs2)c(S(=O)(=O)N2CCCCC2)n1 | -2.65% | 4.71 | -5.89% | -7.07% | -6.02%
47 | CN(C)C[C@@H]1CN(C2CCOCC2)C[C@H]1NC(=O)c1cc2ccccc2[nH]1 | -5.42% | -5.36 | -4.02% | -8.23% | -3.54%
48 | O=C([C@@H]1C[C@H](F)CN1S(=O)(=O)Cc1ccccc1)N1CCOCC1 | -3.24% | -8.6 | -6.9% | -8% | -7.77%
49 | CC(C)(O)c1ccc2c(c1)C(O)CC1C(C)(C(=O)O)CCCC21C (stereo not given) | 0.562% | 6.2 | 9.63% | -7.76% | 2.1%
50 | COC1CCCN(C(=O)c2cnc(Cc3c(Cl)cccc3Cl)[nH]c2=O)C1 (stereo not given) | -5.49% | 0.179 | 0.509% | 0.191% | 1.39%
51 | CNC1CN(c2ccc3c(=O)c(C(=O)O)cn(-c4nccs4)c3n2)CC1OC (stereo not given) | -2.4% | – | -5.13% | – | –
52 | CO[C@@H]1COCC[C@H]1NC(=O)c1cn(CCN2CCNCC2)nn1 | -0.83% | -3.75 | 0.818% | -2.43% | -2.73%
53 | O=C(CCc1nnc2n(CCc3ccccc3)c(=O)c3ccccc3n12)N1CCC(Cc2ccccc2)CC1 | -5.2% | 0 | 5.42% | 3.05% | -1.58%
54 | O=C(CN1C(=O)CNC1=O)N[C@H](c1ccc2c(c1)CCO2)C1CC(O)C1 (stereo not given in full) | -5.76% | -8.97 | -4.04% | -12.1% | -7.92%
55 | COCCCNc1nc(-c2cccnc2)nc2c1CNC2 | -5.03% | -5.86 | -4.64% | -4.72% | -9.51%
56 | O=C(c1cc(CN2CCC(Cc3ccccc3)CC2)on1)N1CCN2CCCC2C1 (stereo not given) | -3.25% | -10.2 | -2.62% | -5.89% | -1.95%
57 | CCN(Cc1nccn1C)C(=O)c1cc(-c2cnc(C)nc2)nc2ccc(F)cc12 | -2.13% | -3.52 | -2.63% | -11.5% | -6.71%
58 | CCC(=O)N1CCN(c2ccc(-n3c(=O)ccc4cnc5ccc(-c6cnc7ccccc7c6)cc5c43)cc2C(F)(F)F)CC1 | 2.33% | 1.15 | 4.54% | -10.9% | -4.21%
